According to PubChem BioAssay AID1240 (Sanford-Burnham Center for Chemical Genomics, 2008):
Hit rate of the full screen: of about 50,000 compounds, about 800 (1.6%) showed an effect of 50% or more. The list shows a part of the results.

Target: Bcl-2-like protein 10 (Homo sapiens) (UniProt Q9HD36)
Test: Phenotype converters, Bcl-B/TR3 peptide binding displacement, primary biochemical FP (AID 1240);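 further: 0% = Bcl-B with tracer peptide and DMSO and 100% = tracer peptide lacking Bcl-B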
Conditions: GST-Bcl-B / FITC-TR3 peptide fluorescence polarization; stronger effect = higher value; compound at 3.75 mg/L

UniProt Q9HD36, sequence (Q9HD36 whole entry, looked up): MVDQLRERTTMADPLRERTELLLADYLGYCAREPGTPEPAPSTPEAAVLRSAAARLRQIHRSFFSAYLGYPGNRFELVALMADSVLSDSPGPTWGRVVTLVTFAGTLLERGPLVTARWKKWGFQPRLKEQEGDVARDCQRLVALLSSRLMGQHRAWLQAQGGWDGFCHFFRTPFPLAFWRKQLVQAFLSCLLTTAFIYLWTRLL

Going from `COc1ccc(/C=C(/C#N)C(=O)Nc2ccccc2)cc1` to `COc1ccccc1CC(=O)Nc1ccc(Br)cc1`, the displacement rises from -3.5% to 5.8%.

Compared with `O=C(NCc1ccc(Cl)cc1Cl)C(=O)NC1CCCC1`, `CCOC(=O)c1sc(NC(=O)c2ccc(Cl)cc2Cl)nc1C` is higher in displacement: 10.8% for the first, 17% for the second.

Compared with `CCOC(=O)c1c(NC(=O)c2ccc(Br)cc2)sc(C(=O)N(CC)CC)c1C`, `COC(=O)c1c(NC(=O)c2sc3cc(C)ccc3c2Cl)sc(C)c1C` is higher in displacement: -0.9% for the first, 6% for the second.

Compared with `O=C(C(c1ccccc1)c1ccccc1)N1CCN(C2CC3CCC2C3)CC1` (stereo unspecified), `O=C(c1ccco1)N1CCN(S(=O)(=O)c2ccccc2)CC1` is higher in displacement: -2.6% for the first, -2.1% for the second.

First: Cc1ccc(S(=O)(=O)c2cc(NS(=O)(=O)c3ccc(Cl)cc3)c3ccccc3c2O)cc1
Second: O=C(/C=C/c1ccccc1)Nc1ccc(S(=O)(=O)Nc2ccc(F)cc2)cc1
The displacement of the first is higher: 4.7% for the first, -4.3% for the second.

First: COc1cc(C=C2C(=O)c3ccccc3C2=O)cc(Br)c1OCC(=O)O
Second: COc1ccc2ccccc2c1/C=C1/C(=O)NC(=O)N(c2cccc(Br)c2)C1=O
The displacement of the first is lower: -0.2% for the first, 11.3% for the second.

Compared with `COc1ccc(N2C(=O)NC(=O)/C(=C/c3ccc(OCCOc4ccccc4)cc3)C2=O)cc1`, `CCc1ccc(N2C(=O)NC(=O)/C(=C\c3ccc(Oc4ccc([N+](=O)[O-])cn4)cc3)C2=O)cc1` is higher in displacement: -23.2% for the first, 7.3% for the second.

Going from `Cc1ccc2nc(-c3ccc(N4C(=O)C5C6c7ccccc7C(c7ccccc76)C5C4=O)cc3)sc2c1` (stereo unspecified) to `O=C(COc1ccccc1[N+](=O)[O-])Nc1cc(-c2nc3ccccc3s2)ccc1Cl`, the displacement rises from -2.1% to 7.8%.

First: COc1cccc(/C=N/Nc2cc(N3CCOCC3)ncn2)c1O
Second: COc1ccc(Br)cc1/C=C/C(=O)Nc1ccc(N2CCOCC2)cc1
The displacement of the first is lower: -9% for the first, 8.5% for the second.

Compared with `CC(=O)NC(=O)c1ccccc1OCc1ccc([N+](=O)[O-])cc1`, `Cc1ccc2cccc(SCc3ccc([N+](=O)[O-])cc3)c2n1` is lower in displacement: 2.3% for the first, -9.5% for the second.

First: C/C(=N\N1CCN(Cc2ccc(C)cc2)CC1)c1ccccc1O
Second: O=C(c1cccs1)N1CCN(Cc2ccccc2F)CC1
The displacement of the first is higher: 14.3% for the first, 1.2% for the second.

Compared with `Cc1ccc(S(=O)(=O)n2cnc3cc([N+](=O)[O-])ccc32)cc1C`, `Cc1cc[n+](CC(=O)c2ccc(C)c([N+](=O)[O-])c2)cc1` is lower in displacement: 10% for the first, 2.9% for the second.

First: Cc1cccc(-n2c(C)cc(/C=N/NC(=O)CN3CCOCC3)c2C)c1
Second: O=C(N/N=C/c1cc([N+](=O)[O-])ccc1O)c1cccc(N2CCCC2=O)c1
The displacement of the first is lower: -27.1% for the first, 0% for the second.

Going from `COc1c(Cl)cc(/C=C2/SC(=S)NC2=O)cc1Cl` to `O=C1/C(=C\c2cc(Cl)c(O)c(Cl)c2)SC(=S)N1c1ccccc1`, the displacement falls from -19% to -60.7%.

First: O=C(Nc1nc(-c2ccccc2)cs1)C1CC2CCC1C2 (stereo unspecified)
Second: CC(C)c1ccccc1NC(=O)C1CC1
The displacement of the first is lower: -16.1% for the first, 4.7% for the second.

First: CCOC(=O)c1c(/N=C/c2c(O)c([N+](=O)[O-])cc3oc4c(c23)CCCC4)sc(C)c1C
Second: CCOCCOC(=O)C1=C(C)NC2=C(C(=O)CCC2)C1c1ccccc1Cl (stereo unspecified)
The displacement of the first is higher: 5.9% for the first, 2.2% for the second.

Compared with `Cc1cc(NC(=O)c2ccc(-c3ccc([N+](=O)[O-])cc3C)o2)ccc1NC(=O)c1ccco1`, `Cc1ccc(-c2nc3cc(Cl)ccc3o2)cc1NC(=S)NC(=O)c1ccco1` is higher in displacement: -1.5% for the first, 16.3% for the second.

Compared with `Cc1ccc(OCC(O)Cn2c3ccccc3c3ccccc32)cc1` (stereo unspecified), `COc1ccccc1NCC(O)Cn1c2ccccc2c2ccccc21` (stereo unspecified) is higher in displacement: -10.4% for the first, 0.3% for the second.

First: O=C(NN1C(=O)CSC1=S)c1ccncc1
Second: CC(=O)c1cccc(NC(=O)c2ccc3ccccc3c2)c1
The displacement of the first is lower: -31.9% for the first, 30.2% for the second.

First: Cc1ccc(OCC(=O)N=Nc2c(O)[nH]c3ccc(Br)cc23)cc1
Second: CC(=O)c1cccc(NC(=O)COc2ccc(C(C)(C)C)cc2)c1
The displacement of the first is higher: 11.7% for the first, -0.3% for the second.

Compared with `COc1cc(/C=C(\C#N)C(=O)NCc2ccco2)c(Br)c(Br)c1O`, `COc1ccccc1OCCNC(=O)Nc1cc(F)c(F)cc1Cl` is higher in displacement: -112% for the first, -30.2% for the second.

First: O=C(CSC1CC(=O)N(c2ccc(C(=O)O)cc2)C1=O)Nc1ccc(Cl)cc1 (stereo unspecified)
Second: O=C(O)c1ccc(-n2c(=O)c3ccccc3c3ccccc3c2=O)cc1
The displacement of the first is higher: 9.1% for the first, -1.2% for the second.

Going from `O=C1CC(c2cc3c(cc2Cl)OCO3)c2cc(Br)c3ccccc3c2N1` (stereo unspecified) to `COc1cc(NC(=O)c2ccccc2Cl)cc(OC)c1`, the displacement rises from -5.8% to 0.9%.

Going from `CC(C)C(=O)Nc1ccc(-c2nc3cc(Cl)cc(Cl)c3o2)cc1` to `CC(C)Oc1cccc(C(=O)Nc2ccc3oc(-c4ccncc4)nc3c2)c1`, the displacement rises from 4.4% to 10%.

Compared with `COc1ccccc1OCCNC(=O)c1ccc(Oc2ccccc2)cc1`, `COc1cc(NC(=O)C(C)Oc2ccccc2)c(Cl)cc1NC(=O)c1ccccc1` (stereo unspecified) is higher in displacement: -3.9% for the first, 4.9% for the second.

First: COc1ccc2c(c1)nc(SCC(O)c1ccccc1)n2C (stereo unspecified)
Second: Cc1cc(-c2ccc(C)o2)c(C#N)c(SCC(=O)c2ccccc2)n1
The displacement of the first is lower: -4% for the first, 40.5% for the second.

Going from `c1ccc(C23CN4CCN(CC(C4)C2=N/N=C2\C4CN5CCN(C4)CC2(c2ccccc2)C5)C3)cc1` to `CC(N=C(NS(=O)(=O)c1ccccc1)c1ccccc1)C(=O)O` (stereo unspecified), the displacement rises from -1.7% to 6.7%.

Compared with `COc1ccc(C(=O)Nc2cc(Cl)ccc2Cl)cc1NC(=O)c1ccccc1C`, `COc1ccccc1NC(=O)/C(=C\c1cccs1)NC(=O)c1ccc(C(C)(C)C)cc1` is higher in displacement: 2.9% for the first, 8.8% for the second.

Compared with `CC(C)CNC(=O)CC(c1ccccc1)c1c(O)ccc2ccccc12` (stereo unspecified), `CC1(C)CC(=O)C(CC(=O)Nc2cccc3ccccc23)=C(O)C1` is lower in displacement: 4.2% for the first, 0.6% for the second.

Compared with `CCc1nnc(NC(=O)CN2CCN(c3ccc([N+](=O)[O-])cc3)CC2)s1`, `O=C(Oc1ccc(-n2cnnn2)cc1)N1CCOCC1` is lower in displacement: 6.3% for the first, 0.2% for the second.

Compared with `O=C1c2ccccc2C(=O)N1N1C(=O)c2ccc(-c3nc4ccccc4o3)cc2C1=O`, `Cn1c2c(c(=O)[nH]c1=O)C(c1ccccc1)C1=C(N2)c2ccccc2C1=O` (stereo unspecified) is higher in displacement: 1.5% for the first, 2.9% for the second.

First: CC1CCN(c2cc(N3CCN(C(=O)c4ccc(F)cc4F)CC3)c([N+](=O)[O-])cc2F)CC1
Second: CC1CCN(c2cc(N3CCN(C(=O)c4ccccc4F)CC3)c([N+](=O)[O-])cc2F)CC1
The displacement of the first is higher: -2.9% for the first, -5.2% for the second.

Compared with `COc1ccc(C2SCC(=O)N2CCN2CCCCC2)cc1` (stereo unspecified), `S=c1oc(COc2ccc(Cl)cc2Cl)nn1CN1CCCCC1` is higher in displacement: 5.9% for the first, 8.7% for the second.

Going from `CCOc1ccc(NC(=O)COc2ccccc2)c([N+](=O)[O-])c1` to `Cc1ccc(OCC(=O)Nc2cccnc2)cc1C`, the displacement falls from 10.7% to -0.6%.

Compared with `COc1ccc(N(CC(=O)Nc2ccc(Cl)cc2)S(C)(=O)=O)c(OC)c1`, `COc1cc2c(NCc3ccccc3)cc(O)c(CC(=O)Nc3ccc(Cl)cc3)c2cc1OC` is lower in displacement: 3.4% for the first, 1.5% for the second.

First: C=CCNc1nc(Nc2ccccc2)nc(Nc2ccccc2)n1
Second: OCCNc1cc(-c2ccccc2)nc(-c2ccc(Br)cc2)n1
The displacement of the first is lower: -0.1% for the first, 2.7% for the second.

Compared with `CCOC(=O)c1cccc(-c2ccc(/C=C3\Sc4ccccc4C3=O)o2)c1`, `O=C(N/N=C/c1ccc(-c2cccc(C(F)(F)F)c2)o1)c1ccco1` is higher in displacement: -33.5% for the first, 7.3% for the second.

First: O=C(Cc1ccccc1)N1N=C(c2cccnc2)CC1(O)C(F)(F)F (stereo unspecified)
Second: Cc1ccc(C2=NN(C(=O)OC(C)(C)C)C(O)(C(F)(F)F)C2)cc1 (stereo unspecified)
The displacement of the first is higher: 5.7% for the first, 1.3% for the second.

Compared with `Cc1cc(F)c(F)cc1C(=O)n1nnc2ccccc21`, `O=C(NCCCn1ccnc1)c1cc(-c2ccc(Cl)cc2)nc2ccccc12` is lower in displacement: 1.8% for the first, 1% for the second.

First: CCc1c(C)nc2[nH]nc(-c3cccc(-c4n[nH]c5nc(C)c(CC)c(=O)n45)n3)n2c1=O
Second: Cc1ccc(NC(=O)CCC(=O)n2nc(C)cc2C)c(C)c1
The displacement of the first is higher: -5.9% for the first, -6.3% for the second.

Going from `CC(C)(C)c1ccc(C(=O)Nc2ccc(N)cc2)cc1` to `Cc1cccc2sc(NC(=O)c3ccc(C(=O)c4ccccc4)cc3)nc12`, the displacement falls from 11.4% to 4.1%.

First: CCc1c(C#N)c(N)[nH]c(=S)c1C#N
Second: CCC1CCc2c(sc(N)c2C#N)C1 (stereo unspecified)
The displacement of the first is higher: 8.8% for the first, -1.4% for the second.

Going from `COc1cc(C(=O)N/C(=C/c2ccc(F)cc2)C(=O)NC(CCC(=O)O)C(=O)O)cc(OC)c1OC` (stereo unspecified) to `COc1cc(NC(=O)c2nn3c(c2Cl)NC(c2ccc(OC)c(OC)c2)CC3C(F)(F)F)cc([N+](=O)[O-])c1` (stereo unspecified), the displacement rises from -5.5% to 11.9%.

Going from `O=C(CC(Nc1ccc([N+](=O)[O-])cc1)c1ccc(Cl)cc1)c1ccc(Cl)cc1` (stereo unspecified) to `Cc1ccc(C2(c3ccc(C)cc3)CC2C(=O)Nc2ccccc2F)cc1` (stereo unspecified), the displacement rises from -2.2% to 5.7%.

First: Cc1cc(C)nc(SCC(=O)Nc2nc3c(s2)C(=O)CC(C)(C)C3)n1
Second: Cc1cc(C)nc(SCC(=O)Nc2ccccc2C(=O)O)n1
The displacement of the first is lower: -1.2% for the first, 0.9% for the second.

Compared with `CCCN1C(=O)c2ccccc2NC1c1cccc(F)c1` (stereo unspecified), `O=C(c1cccc([N+](=O)[O-])c1)N1CCc2ccccc2C1` is lower in displacement: 11.1% for the first, 7.8% for the second.

First: Cc1cc(C(=O)NCCCN(C)C)ccc1[N+](=O)[O-]
Second: COc1cc(CNCc2ccccc2[N+](=O)[O-])cc(OC)c1
The displacement of the first is higher: 14.1% for the first, -1.7% for the second.

Going from `COc1cccc(C(=O)N2c3cc(OC)ccc3-c3c(ssc3=S)C2(C)C)c1` to `COc1cccc(CN2CCN(C(=O)c3cccs3)CC2)c1OC`, the displacement falls from -6.6% to -7%.

Going from `O=C(CSc1nc2ccccc2[nH]1)N/N=C/c1ccccc1[N+](=O)[O-]` to `Cc1nc2sccn2c1C(=O)N/N=C/c1ccccc1O`, the displacement falls from 9.4% to -0.3%.

Going from `COc1ccc(/C=C2/C(C)=C(C#N)c3nc(N)c(C#N)c(C)c32)c(OC)c1` to `CCOCCOC(=O)C1=C(C)NC2=C(C(=O)CCC2)C1c1ccc(OC)c(OCc2ccccc2)c1` (stereo unspecified), the displacement rises from -1% to 0.6%.

First: O=C(/C=C/c1ccc2c(c1)OCO2)Nc1ccc(N2CCCCC2)cc1
Second: COc1ccc(Cl)cc1C(=O)N1CCOCC1
The displacement of the first is higher: -0.9% for the first, -12.2% for the second.

Going from `O=C1CCCc2nn(-c3ccccc3)nc21` to `CCC(Oc1ccccc1)C(=O)N1CCN(C)CC1` (stereo unspecified), the displacement falls from 3.2% to -0.2%.

Going from `N/C(=N\S(=O)(=O)Cc1ccccc1)Nc1nc2ccccc2o1` to `Cc1ccc(CC2S/C(=N\N=C\c3ccco3)NC2=O)cc1` (stereo unspecified), the displacement rises from -2.3% to 35.4%.
